Assay results as given in the antibiotic and cytotoxicity screens of Wong et al. (2023).
Some of the results follow.

What follows are compounds tested on S. aureus RN4220 (assay: growth inhibition call (relative growth <= 0.2)). Details: 50 µM.

Growth inhibition call, inactive:
CC(C)NC(=O)N(C)C[C@H]1Oc2ccc(NS(=O)(=O)c3ccccc3)cc2C(=O)N([C@H](C)CO)C[C@H]1C
CC(C)[C@@H](CS(=O)(=O)C(C)C)N1C(=O)[C@@](C)(CC(=O)O)C[C@H](c2cccc(Cl)c2)[C@H]1c1ccc(Cl)cc1
Cc1cn2c(nc1=O)O[C@@H]1C[C@H]2O[C@@H]1CO
COc1ccccc1CNC(=O)C[C@H]1C[C@@H]2c3cc(NC(=O)Nc4ccc(C(F)(F)F)cc4)ccc3O[C@@H]2[C@@H](CO)O1
C[C@@H]1CN([C@H](C)CO)C(=O)Cc2cc(NC(=O)CCC(F)(F)F)ccc2O[C@H]1CN(C)Cc1ccc(C(=O)Nc2ccccc2N)cc1
COCC(=O)N1CC[C@]2(CC1)CN([C@@H](CO)c1[nH]c3cc(ccc3c12)OC)S(=O)(=O)C
C[C@H]1CN([C@@H](C)CO)S(=O)(=O)c2ccc(C#CC3(O)CCCC3)cc2O[C@@H]1CN(C)C(=O)c1ccncc1
COc1ccc(NC(=O)Nc2ccc3c(c2)C(=O)N([C@H](C)CO)C[C@H](C)[C@@H](CN(C)CC2CC2)OCCCC[C@@H](C)O3)cc1
CN(C)Cc1c(C(=O)N/N=C/c2ccncc2)nnn1-c1nonc1N
C[C@H](CO)N1C[C@H](C)[C@H](CN(C)C(=O)NC2CCCCC2)Oc2c(NC(=O)Nc3cccc4ccccc34)cccc2C1=O
C[C@@H]1CN([C@H](C)CO)C(=O)c2c(c3ccccc3n2C)-c2ccccc2CO[C@H]1CN(C)S(C)(=O)=O
CC(C)NC(=O)N(C)C[C@H]1Oc2ccc(NC(=O)NC3CCCCC3)cc2C(=O)N([C@@H](C)CO)C[C@@H]1C
C[C@H](CO)N1C[C@H](C)[C@H](CN(C)Cc2ccncc2)Oc2ccc(NS(=O)(=O)c3ccc(F)cc3)cc2CC1=O
COc1ccc(NC(=O)N(C)C[C@@H]2Oc3c(NS(C)(=O)=O)cccc3C(=O)N([C@@H](C)CO)C[C@H]2C)cc1
O=C(NO)c1ccc(C(=O)N/N=C/c2ccc(B(O)O)cc2)cc1
C[C@@H]1CN([C@@H](C)CO)C(=O)c2cc(NC(=O)Nc3ccc(C(F)(F)F)cc3)ccc2O[C@@H]1CN(C)Cc1ccc(C(=O)O)cc1
O=C(CN1CCOCC1)NCC[C@@H]1CC[C@@H](NC(=O)c2ccccc2F)[C@H](CO)O1
COc1ccc(CN(C)C[C@H]2OCCCC[C@@H](C)Oc3ccc(NC(=O)Nc4ccccc4)cc3C(=O)N([C@@H](C)CO)C[C@H]2C)cc1
CN(C)CCCNC(=O)C[C@@H]1CC[C@H]2[C@@H](COc3ccc(NS(C)(=O)=O)cc3C(=O)N2C)O1
C[C@H](CO)N1C[C@H](C)[C@H](CN(C)S(=O)(=O)c2cccs2)Oc2c(NS(=O)(=O)c3cccs3)cccc2C1=O
Cc1noc(C)c1S(=O)(=O)Nc1ccc2c(c1)CC(=O)N([C@H](C)CO)C[C@@H](C)[C@H](CN(C)S(=O)(=O)c1ccc(F)cc1)O2
C[C@@H]1CN([C@H](C)CO)C(=O)c2cc(NC(=O)Nc3ccc(C(F)(F)F)cc3)ccc2O[C@@H](C)CCCCO[C@@H]1CN(C)Cc1ccc(C(=O)O)cc1
C[C@@H]1CN([C@H](C)CO)C(=O)c2cc(NC(=O)Nc3cccc4ccccc34)ccc2O[C@@H]1CN(C)C(=O)NC1CCCCC1
NC(=O)c1nnn(Cc2ccccc2)c1N
C[C@H]1CN([C@@H](C)CO)C(=O)Cc2cc(NS(=O)(=O)c3cn(C)cn3)ccc2O[C@@H]1CN(C)Cc1ccncc1
C[C@@H]1CN([C@H](C)CO)C(=O)c2cc(N(C)C)ccc2O[C@@H](C)CCCCO[C@@H]1CN(C)S(C)(=O)=O
C[C@@H]1CCCCO[C@H](CN(C)C(=O)Nc2ccccc2)[C@H](C)CN([C@@H](C)CO)C(=O)c2cc(NS(=O)(=O)c3ccc(F)cc3)ccc2O1
N[C@@]1(C(=O)O)CS(=O)(=O)[C@H]2[C@H](C(=O)O)[C@H]21
C[C@@H]1CN([C@H](C)CO)C(=O)c2cc(NS(C)(=O)=O)ccc2O[C@H]1CN(C)C(=O)Nc1ccc2c(c1)OCO2
COc1ccc(NC(=O)Nc2cccc3c2O[C@@H](CN(C)C(=O)Nc2ccc(C(F)(F)F)cc2)[C@H](C)CN([C@@H](C)CO)C3=O)cc1
CC(C)(C)S(=O)N1Cc2cc(C(=O)N3CCN(Cc4ccccc4)CC3)nc(-c3cccc(-c4cc5ccccc5o4)c3)c2[C@H]1CCO (stereo not given in full)
O=C(C[C@@H]1CC[C@@H]2[C@H](COC[C@H](O)CN2S(=O)(=O)c2ccccc2)O1)NCc1ccc2c(c1)OCO2
C[C@@H]1CCCCO[C@H](CN(C)C(=O)c2ccccc2)[C@H](C)CN([C@H](C)CO)C(=O)c2cc(NC(=O)c3ccccc3)ccc2O1
Cn1nnc2c(Cl)ncnc21
Cc1noc(C)c1NC(=O)Nc1ccc2c(c1)C(=O)N([C@H](C)CO)C[C@H](C)[C@H](CN(C)C(=O)c1ccccc1)OCCCC[C@@H](C)O2
C[C@H]1CN([C@@H](C)CO)C(=O)c2cccc(NC(=O)Nc3ccc(C(F)(F)F)cc3)c2O[C@@H]1CN(C)Cc1ccccc1
COc1ccc(NC(=O)N(C)C[C@@H]2OCCCC[C@H](C)Oc3ccc(NC(=O)Nc4ccc(F)cc4)cc3C(=O)N([C@H](C)CO)C[C@@H]2C)cc1
COc1ccc(C#Cc2ccc3c(c2)[C@H]2[C@H](CCN2C(=O)Nc2ccc(C(F)(F)F)cc2)[C@H](CO)N3C)cc1
Cc1ccc(S(=O)(=O)N(C)C[C@@H]2OCCCC[C@H](C)Oc3ccc(NS(=O)(=O)c4ccc(Cl)cc4)cc3C(=O)N([C@@H](C)CO)C[C@@H]2C)cc1
CN(CCN)c1ccccc1
